The supplement of paper PMC10369915
Some of the results follow. Rule as the data show it: active = 3.2 or more and inactive = the rest. Most of these values are background signal.

What follows are binders tested against SHP2 C-SH2 domain E139D (assay: enrichment score (SH2-bound / input frequency) (ratio); bacterial display of known human phosphotyrosine sites (pTyr-Var adds point mutants) read by sequencing; higher = stronger binding; tyrosines were phosphorylated by kinases first). Conditions: peptide library: pTyr-Var.
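Also: displayed peptides selected on beads carrying the immobilized SH2 domain, with library peptides lacking any tyrosine serving as negative controls.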

Enrichment score, inactive:
KGNMYYENSYA [EGFR_Y113_R108K] 1.29
RGNMFYENSFA [EGFR_Y113_YF] 1.43
PRLMLYNPTTY [EGFR_Y270_P266R] 1.07
PRLMLYNPTTF [EGFR_Y270_P266R_YF] 1.16
PPLMLYNPTTF [EGFR_Y270_YF] 1.1
AFGTVYKGLWI [EGFR_Y727] 1.17
ILDEAYVMASM [EGFR_Y764_V769M] 0.603
AEEKEYHAEGG [EGFR_Y869] 0.586
GGMAEYTRLHN [EHHADH_Y4] 0.736
GGMAKYTRLHN [EHHADH_Y4_E3K] 0.963
EKLQKYYRQNP [EHHADH_Y682] 0.905
EKLQKYYRKNP [EHHADH_Y682_Q685K] 1.04
EKLQKYFRQNP [EHHADH_Y682_YF] 1.09
KLQKYYRQNPD [EHHADH_Y683] 0.97
KLQKFYRKNPD [EHHADH_Y683_Q685K_YF] 0.856
KLQKFYRQNPD [EHHADH_Y683_YF] 0.801
GIADDYDKKKL [EIF1_Y54] 0.508
IKNSGYISQYL [EIF2AK3_Y585_R588Q] 1.09
IKNSGYISRFL [EIF2AK3_Y585_YF] 1.39

These binders were tested against SHP2 C-SH2 domain wild-type in the same assay as above. Conditions: peptide library: pTyr-Var.

Enrichment score, inactive:
KGNMYYENSYA [EGFR_Y113_R108K] 1.18
RGNMFYENSFA [EGFR_Y113_YF] 1.17
PRLMLYNPTTY [EGFR_Y270_P266R] 1.21
PRLMLYNPTTF [EGFR_Y270_P266R_YF] 0.94
PPLMLYNPTTF [EGFR_Y270_YF] 0.927
AFGTVYKGLWI [EGFR_Y727] 1.1
ILDEAYVMASM [EGFR_Y764_V769M] 0.691
AEEKEYHAEGG [EGFR_Y869] 0.588
GGMAEYTRLHN [EHHADH_Y4] 1
GGMAKYTRLHN [EHHADH_Y4_E3K] 1.09
EKLQKYYRQNP [EHHADH_Y682] 0.887
EKLQKYYRKNP [EHHADH_Y682_Q685K] 0.851
EKLQKYFRQNP [EHHADH_Y682_YF] 0.916
KLQKYYRQNPD [EHHADH_Y683] 0.81
KLQKFYRKNPD [EHHADH_Y683_Q685K_YF] 0.612
KLQKFYRQNPD [EHHADH_Y683_YF] 0.715
GIADDYDKKKL [EIF1_Y54] 0.493
IKNSGYISQYL [EIF2AK3_Y585_R588Q] 1.18
IKNSGYISRFL [EIF2AK3_Y585_YF] 1.37

Each binder was assayed against SHP2 N-SH2 domain L43F in the same assay as above. Conditions: peptide library: pTyr-Var.

Enrichment score, inactive:
KGNMYYENSYA [EGFR_Y113_R108K] 1.34
RGNMFYENSFA [EGFR_Y113_YF] 1.89
PRLMLYNPTTY [EGFR_Y270_P266R] 1.75
PRLMLYNPTTF [EGFR_Y270_P266R_YF] 1
PPLMLYNPTTF [EGFR_Y270_YF] 1.13
AFGTVYKGLWI [EGFR_Y727] 0.829
ILDEAYVMASM [EGFR_Y764_V769M] 0.644
AEEKEYHAEGG [EGFR_Y869] 0.582
GGMAEYTRLHN [EHHADH_Y4] 0.744
GGMAKYTRLHN [EHHADH_Y4_E3K] 1.01
EKLQKYYRQNP [EHHADH_Y682] 1.08
EKLQKYYRKNP [EHHADH_Y682_Q685K] 0.87
EKLQKYFRQNP [EHHADH_Y682_YF] 0.728
KLQKYYRQNPD [EHHADH_Y683] 0.712
KLQKFYRKNPD [EHHADH_Y683_Q685K_YF] 0.766
KLQKFYRQNPD [EHHADH_Y683_YF] 0.851
GIADDYDKKKL [EIF1_Y54] 0.546
IKNSGYISQYL [EIF2AK3_Y585_R588Q] 0.981
IKNSGYISRFL [EIF2AK3_Y585_YF] 1.26

The binders below were run against SHP2 N-SH2 domain T42A in the same assay as above. Conditions: peptide library: pTyr-Var.

Enrichment score, inactive:
KGNMYYENSYA [EGFR_Y113_R108K] 1.22
RGNMFYENSFA [EGFR_Y113_YF] 1.47
PRLMLYNPTTY [EGFR_Y270_P266R] 1.14
PRLMLYNPTTF [EGFR_Y270_P266R_YF] 1.03
PPLMLYNPTTF [EGFR_Y270_YF] 0.965
AFGTVYKGLWI [EGFR_Y727] 1.97
ILDEAYVMASM [EGFR_Y764_V769M] 0.489
AEEKEYHAEGG [EGFR_Y869] 0.651
GGMAEYTRLHN [EHHADH_Y4] 0.933
GGMAKYTRLHN [EHHADH_Y4_E3K] 1
EKLQKYYRQNP [EHHADH_Y682] 0.646
EKLQKYYRKNP [EHHADH_Y682_Q685K] 0.829
EKLQKYFRQNP [EHHADH_Y682_YF] 0.965
KLQKYYRQNPD [EHHADH_Y683] 0.737
KLQKFYRKNPD [EHHADH_Y683_Q685K_YF] 0.62
KLQKFYRQNPD [EHHADH_Y683_YF] 0.663
GIADDYDKKKL [EIF1_Y54] 0.638
IKNSGYISQYL [EIF2AK3_Y585_R588Q] 0.82
IKNSGYISRFL [EIF2AK3_Y585_YF] 1.22

The binders below were run against SHP2 N-SH2 domain T52S in the same assay as above. Conditions: peptide library: pTyr-Var.

Enrichment score, inactive:
KGNMYYENSYA [EGFR_Y113_R108K] 1.47
RGNMFYENSFA [EGFR_Y113_YF] 1.79
PRLMLYNPTTY [EGFR_Y270_P266R] 1.26
PRLMLYNPTTF [EGFR_Y270_P266R_YF] 1.33
PPLMLYNPTTF [EGFR_Y270_YF] 0.973
AFGTVYKGLWI [EGFR_Y727] 1.25
ILDEAYVMASM [EGFR_Y764_V769M] 0.758
AEEKEYHAEGG [EGFR_Y869] 0.599
GGMAEYTRLHN [EHHADH_Y4] 0.776
GGMAKYTRLHN [EHHADH_Y4_E3K] 0.961
EKLQKYYRQNP [EHHADH_Y682] 0.703
EKLQKYYRKNP [EHHADH_Y682_Q685K] 0.81
EKLQKYFRQNP [EHHADH_Y682_YF] 0.776
KLQKYYRQNPD [EHHADH_Y683] 0.803
KLQKFYRKNPD [EHHADH_Y683_Q685K_YF] 0.726
KLQKFYRQNPD [EHHADH_Y683_YF] 0.922
GIADDYDKKKL [EIF1_Y54] 0.586
IKNSGYISQYL [EIF2AK3_Y585_R588Q] 1.02
IKNSGYISRFL [EIF2AK3_Y585_YF] 1.23

Each binder was assayed against SHP2 N-SH2 domain wild-type in the same assay as above. Conditions: peptide library: pTyr-Var.

Enrichment score, inactive:
KGNMYYENSYA [EGFR_Y113_R108K] 1.23
RGNMFYENSFA [EGFR_Y113_YF] 1.47
PRLMLYNPTTY [EGFR_Y270_P266R] 1.05
PRLMLYNPTTF [EGFR_Y270_P266R_YF] 1.37
PPLMLYNPTTF [EGFR_Y270_YF] 0.754
AFGTVYKGLWI [EGFR_Y727] 0.922
ILDEAYVMASM [EGFR_Y764_V769M] 0.849
AEEKEYHAEGG [EGFR_Y869] 0.672
GGMAEYTRLHN [EHHADH_Y4] 0.778
GGMAKYTRLHN [EHHADH_Y4_E3K] 1.04
EKLQKYYRQNP [EHHADH_Y682] 0.968
EKLQKYYRKNP [EHHADH_Y682_Q685K] 1.17
EKLQKYFRQNP [EHHADH_Y682_YF] 0.999
KLQKYYRQNPD [EHHADH_Y683] 0.857
KLQKFYRKNPD [EHHADH_Y683_Q685K_YF] 0.549
KLQKFYRQNPD [EHHADH_Y683_YF] 0.862
GIADDYDKKKL [EIF1_Y54] 0.817
IKNSGYISQYL [EIF2AK3_Y585_R588Q] 1.08
IKNSGYISRFL [EIF2AK3_Y585_YF] 1.31
